# Measurements from the supplement of paper PMC7826260.
# The other results are listed elsewhere or left out. One pool of 16,384 single-stranded DNAs met each Rep nickase domain in vitro (1 h at 37 °C, 3 µM enzyme); the outer parts of the 90-letter strands are left off. Uncut reads are compared with the no-enzyme pool on a log2 scale; the lower, the more was cut; hits are not called. Because reads are shares of a total, they shift together; values above 0 arise when much of the pool is cut.
# Legend:
# Test in all cases: uncleaved DNA left, log2 of reads against the no-enzyme library (log2 ratio); higher = less cleavage (more negative = more Rep cleavage of the k-mer); sequences stand for … in CTCGTCCG…ACCGGAGA
# [1] = tested on: T1, Rep nickase domain of Muscovy duck circovirus
# T1 sequence (residues 1-111 of Rep, tag left off): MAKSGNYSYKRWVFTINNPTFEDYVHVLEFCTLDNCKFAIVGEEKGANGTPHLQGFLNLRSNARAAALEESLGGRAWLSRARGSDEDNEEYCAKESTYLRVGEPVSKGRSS
# Procedure: (§1)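 A pool of 90-nt single-stranded DNAs with seven random bases just before the constant AC of the nick site (name = the seven bases) was cut by 3 µM recombinant His6-SUMO-tagged Rep nickase domain (300 nM DNA, 50 mM HEPES pH 8.0, 50 mM NaCl, 1 mM MnCl2, 1 h, 37 °C, three replicates). Uncut DNA was amplified and sequenced.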
# [2] = tested on: T2, Rep nickase domain of banana bunchy top virus
# T2 sequence (residues 1-94 of Rep, tag left off): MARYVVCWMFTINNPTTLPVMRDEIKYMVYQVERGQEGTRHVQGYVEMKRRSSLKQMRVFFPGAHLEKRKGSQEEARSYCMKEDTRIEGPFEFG
# Procedure: as §1
# [3] = tested on: T3, Rep nickase domain of cabbage leaf curl virus
# T3 sequence (residues 1-116 of Rep, tag left off): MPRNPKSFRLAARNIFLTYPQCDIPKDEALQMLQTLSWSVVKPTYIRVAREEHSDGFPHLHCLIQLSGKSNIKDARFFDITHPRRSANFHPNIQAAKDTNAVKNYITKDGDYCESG
# Procedure: as §1
# [4] = tested on: T4, Rep nickase domain of chickpea chlorotic dwarf virus
# T4 sequence (residues 1-124 of Rep, tag left off): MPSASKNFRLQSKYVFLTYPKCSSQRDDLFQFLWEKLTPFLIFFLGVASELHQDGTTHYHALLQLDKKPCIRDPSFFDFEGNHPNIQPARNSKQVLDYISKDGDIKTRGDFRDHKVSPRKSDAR
# Procedure: as §1
# [5] = tested on: T5, Rep nickase domain of faba bean necrotic yellows virus
# T5 sequence (residues 1-98 of Rep, tag left off): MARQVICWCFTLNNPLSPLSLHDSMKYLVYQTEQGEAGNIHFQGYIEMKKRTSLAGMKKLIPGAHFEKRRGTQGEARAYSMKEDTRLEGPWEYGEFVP
# Procedure: as §1
# [6] = tested on: T6, Rep nickase domain of maize striate mosaic virus
# T6 sequence (residues 1-117 of Rep, tag left off): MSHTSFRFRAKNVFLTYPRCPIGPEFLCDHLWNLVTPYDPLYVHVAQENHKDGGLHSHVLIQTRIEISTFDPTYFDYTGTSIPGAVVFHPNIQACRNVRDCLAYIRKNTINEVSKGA
# Procedure: as §1
# [7] = tested on: T7, Rep nickase domain of porcine circovirus 2
# T7 sequence (residues 2-116 of Rep, tag left off): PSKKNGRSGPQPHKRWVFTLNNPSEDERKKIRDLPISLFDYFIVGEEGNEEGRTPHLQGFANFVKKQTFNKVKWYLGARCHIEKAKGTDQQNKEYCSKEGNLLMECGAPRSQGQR
# Procedure: as §1
# [8] = tested on: T8, Rep nickase domain of tomato golden mosaic virus
# T8 sequence (residues 1-124 of Rep, tag left off): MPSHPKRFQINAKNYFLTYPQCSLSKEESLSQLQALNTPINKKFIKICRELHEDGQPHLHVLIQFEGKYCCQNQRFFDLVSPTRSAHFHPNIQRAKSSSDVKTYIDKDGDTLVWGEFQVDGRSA
# Procedure: as §1
# [9] = tested on: T9, Rep nickase domain of tomato yellow leaf curl virus
# T9 sequence (residues 1-136 of Rep, tag left off): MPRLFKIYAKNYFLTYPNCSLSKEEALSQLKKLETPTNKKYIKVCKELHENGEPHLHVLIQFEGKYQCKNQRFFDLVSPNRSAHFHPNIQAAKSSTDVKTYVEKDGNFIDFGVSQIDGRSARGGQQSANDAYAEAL
# Procedure: as §1
# [10] = tested on: T10, Rep nickase domain of wheat dwarf virus
# T10 sequence (residues 1-137 of Rep, tag left off): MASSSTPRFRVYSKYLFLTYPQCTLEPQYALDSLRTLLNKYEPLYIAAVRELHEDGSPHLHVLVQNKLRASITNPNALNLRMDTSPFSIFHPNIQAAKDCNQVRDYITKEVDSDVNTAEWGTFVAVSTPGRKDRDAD
# Procedure: as §1
sequence,measurement,setting,value
AAGACCA,uncleaved DNA left (log2),[1],-0.0611
same,uncleaved DNA left (log2),[2],-0.0388
same,uncleaved DNA left (log2),[3],0.04
same,uncleaved DNA left (log2),[4],-0.53
same,uncleaved DNA left (log2),[5],-0.155
same,uncleaved DNA left (log2),[6],0.396
same,uncleaved DNA left (log2),[7],-0.457
same,uncleaved DNA left (log2),[8],-0.0566
same,uncleaved DNA left (log2),[9],-0.146
same,uncleaved DNA left (log2),[10],0.0681
TCACCGT,uncleaved DNA left (log2),[1],-0.0593
same,uncleaved DNA left (log2),[2],0.025
same,uncleaved DNA left (log2),[3],-0.267
same,uncleaved DNA left (log2),[4],-0.95
same,uncleaved DNA left (log2),[5],-0.0307
same,uncleaved DNA left (log2),[6],-1.02
same,uncleaved DNA left (log2),[7],-0.117
same,uncleaved DNA left (log2),[8],-0.105
same,uncleaved DNA left (log2),[9],0.0154
same,uncleaved DNA left (log2),[10],-0.197
GGCCCGC,uncleaved DNA left (log2),[1],0.125
same,uncleaved DNA left (log2),[2],0.0927
same,uncleaved DNA left (log2),[3],0.319
same,uncleaved DNA left (log2),[4],0.991
same,uncleaved DNA left (log2),[5],0.0374
same,uncleaved DNA left (log2),[6],1.49
same,uncleaved DNA left (log2),[7],0.0976
same,uncleaved DNA left (log2),[8],0.0327
same,uncleaved DNA left (log2),[9],0.0192
same,uncleaved DNA left (log2),[10],0.138
ACTTGCA,uncleaved DNA left (log2),[1],0.0561
same,uncleaved DNA left (log2),[2],0.025
same,uncleaved DNA left (log2),[3],-0.589
same,uncleaved DNA left (log2),[4],-0.279
same,uncleaved DNA left (log2),[5],0.098
same,uncleaved DNA left (log2),[6],-0.811
same,uncleaved DNA left (log2),[7],0.121
same,uncleaved DNA left (log2),[8],-0.0647
same,uncleaved DNA left (log2),[9],0.159
same,uncleaved DNA left (log2),[10],-0.0284
AGTCTAG,uncleaved DNA left (log2),[1],0.0266
same,uncleaved DNA left (log2),[2],-0.0676
same,uncleaved DNA left (log2),[3],-0.593
same,uncleaved DNA left (log2),[4],-0.749
same,uncleaved DNA left (log2),[5],-0.00241
same,uncleaved DNA left (log2),[6],-1.23
same,uncleaved DNA left (log2),[7],0.107
same,uncleaved DNA left (log2),[8],0.0405
same,uncleaved DNA left (log2),[9],-0.000331
same,uncleaved DNA left (log2),[10],-0.00849
CAATGGT,uncleaved DNA left (log2),[1],-0.635
same,uncleaved DNA left (log2),[2],-0.086
same,uncleaved DNA left (log2),[3],-1.05
same,uncleaved DNA left (log2),[4],0.389
same,uncleaved DNA left (log2),[5],-0.111
same,uncleaved DNA left (log2),[6],0.21
same,uncleaved DNA left (log2),[7],-2.05
same,uncleaved DNA left (log2),[8],-1.67
same,uncleaved DNA left (log2),[9],-0.295
same,uncleaved DNA left (log2),[10],-1.9
GTATTCT,uncleaved DNA left (log2),[1],-0.2
same,uncleaved DNA left (log2),[2],0.0917
same,uncleaved DNA left (log2),[3],0.261
same,uncleaved DNA left (log2),[4],0.685
same,uncleaved DNA left (log2),[5],-0.0146
same,uncleaved DNA left (log2),[6],1.69
same,uncleaved DNA left (log2),[7],-0.127
same,uncleaved DNA left (log2),[8],0.0642
same,uncleaved DNA left (log2),[9],0.0595
same,uncleaved DNA left (log2),[10],-0.0282
AGGGTCC,uncleaved DNA left (log2),[1],0.0247
same,uncleaved DNA left (log2),[2],0.0386
same,uncleaved DNA left (log2),[3],0.116
same,uncleaved DNA left (log2),[4],0.66
same,uncleaved DNA left (log2),[5],-0.063
same,uncleaved DNA left (log2),[6],0.767
same,uncleaved DNA left (log2),[7],0.0827
same,uncleaved DNA left (log2),[8],0.0684
same,uncleaved DNA left (log2),[9],0.00578
same,uncleaved DNA left (log2),[10],0.0362
CACAGGG,uncleaved DNA left (log2),[1],0.147
same,uncleaved DNA left (log2),[2],0.0423
same,uncleaved DNA left (log2),[3],-0.48
same,uncleaved DNA left (log2),[4],-0.236
same,uncleaved DNA left (log2),[5],0.0422
same,uncleaved DNA left (log2),[6],-0.85
same,uncleaved DNA left (log2),[7],0.209
same,uncleaved DNA left (log2),[8],0.0809
same,uncleaved DNA left (log2),[9],0.0759
same,uncleaved DNA left (log2),[10],-0.0477
GTCCTCC,uncleaved DNA left (log2),[1],-0.0912
same,uncleaved DNA left (log2),[2],0.0394
same,uncleaved DNA left (log2),[3],0.316
same,uncleaved DNA left (log2),[4],0.76
same,uncleaved DNA left (log2),[5],-0.0392
same,uncleaved DNA left (log2),[6],1.54
same,uncleaved DNA left (log2),[7],-0.02
same,uncleaved DNA left (log2),[8],0.0326
same,uncleaved DNA left (log2),[9],-0.0724
same,uncleaved DNA left (log2),[10],0.0397
CTCCTCA,uncleaved DNA left (log2),[1],0.00507
same,uncleaved DNA left (log2),[2],0.065
same,uncleaved DNA left (log2),[3],-0.039
same,uncleaved DNA left (log2),[4],-0.856
same,uncleaved DNA left (log2),[5],0.0163
same,uncleaved DNA left (log2),[6],-0.456
same,uncleaved DNA left (log2),[7],-0.0764
same,uncleaved DNA left (log2),[8],-0.013
same,uncleaved DNA left (log2),[9],0.00885
same,uncleaved DNA left (log2),[10],0.033
TGTGTCG,uncleaved DNA left (log2),[1],0.0837
same,uncleaved DNA left (log2),[2],-0.0315
same,uncleaved DNA left (log2),[3],-0.749
same,uncleaved DNA left (log2),[4],0.213
same,uncleaved DNA left (log2),[5],-0.0754
same,uncleaved DNA left (log2),[6],-0.886
same,uncleaved DNA left (log2),[7],-0.000412
same,uncleaved DNA left (log2),[8],-0.0862
same,uncleaved DNA left (log2),[9],0.0255
same,uncleaved DNA left (log2),[10],-0.204
TGCCGTG,uncleaved DNA left (log2),[1],-0.0815
same,uncleaved DNA left (log2),[2],-0.0202
same,uncleaved DNA left (log2),[3],-0.462
same,uncleaved DNA left (log2),[4],-0.604
same,uncleaved DNA left (log2),[5],0.0373
same,uncleaved DNA left (log2),[6],-0.837
same,uncleaved DNA left (log2),[7],0.0376
same,uncleaved DNA left (log2),[8],-0.0815
same,uncleaved DNA left (log2),[9],-0.0747
same,uncleaved DNA left (log2),[10],-0.172
GACGTCA,uncleaved DNA left (log2),[1],0.0702
same,uncleaved DNA left (log2),[2],0.0957
same,uncleaved DNA left (log2),[3],0.365
same,uncleaved DNA left (log2),[4],-0.000577
same,uncleaved DNA left (log2),[5],0.113
same,uncleaved DNA left (log2),[6],0.779
same,uncleaved DNA left (log2),[7],0.0152
same,uncleaved DNA left (log2),[8],0.0865
same,uncleaved DNA left (log2),[9],-0.0246
same,uncleaved DNA left (log2),[10],0.152
TACTACA,uncleaved DNA left (log2),[1],-1.93
same,uncleaved DNA left (log2),[2],-0.364
same,uncleaved DNA left (log2),[3],-1.93
same,uncleaved DNA left (log2),[4],-3.16
same,uncleaved DNA left (log2),[5],-0.248
same,uncleaved DNA left (log2),[6],-0.467
same,uncleaved DNA left (log2),[7],-3.51
same,uncleaved DNA left (log2),[8],-0.721
same,uncleaved DNA left (log2),[9],-0.047
same,uncleaved DNA left (log2),[10],-1.28
